# Where a name gives a salt, the structure may show the parent alone. Some of the results follow. Most values come without repeats; read them as rough.
# Tested on: A549
# Assay: cell-surface PD-L1 MFI ratio relative to radiation alone (isotype-subtracted); higher = higher PD-L1 surface expression
# Details: inducer: radiation 8 Gy; 10 µM; 24 h
# Method: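 A549 and H460 NSCLC cells were treated with each library drug at 10 uM, then with radiation (8 Gy) or cisplatin (4 uM), and incubated for 24 h. Cell-surface PD-L1 was measured by flow cytometry as an MFI ratio: (MFI drug+inducer - MFI isotype)/(MFI inducer alone - MFI isotype). Hits were defined as ratio < 0.75.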
# 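Also: surface PD-L1 on NSCLC cells stained with a PE-labelled anti-human PD-L1 antibody before flow cytometry, screening a library of roughly two hundred mostly kinase and epigenetic inhibitors.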
row,SMILES,cell-surface PD-L1 MFI ratio
1,Cc1nc(-c2cn3c(n2)-c2ccc(-c4cnn(C(C)(C)C(N)=O)c4)cc2OCC3)n(C(C)C)n1 [Taselisib (GDC 0032)],inactive: 0.833
2,CN(c1ncccc1CNc1nc(Nc2ccc3c(c2)CC(=O)N3)ncc1C(F)(F)F)S(C)(=O)=O,inactive: 0.96
3,CN1CCN(c2ccc(-c3cccc(CN4CCOCC4)c3)cc2NC(=O)c2c[nH]c(=O)cc2C(F)(F)F)CC1,inactive: 0.916
4,CN(C(=O)c1ccc(F)cc1C(F)(F)F)C1CCN(c2nnc(-c3ccnn3C)c3ccccc23)CC1,inactive: 1.1
5,Cc1cc(F)c(C(=O)Nc2cccc(-c3nncn3C(C)C)n2)cc1-n1cnc(C2CC2)c1 [Selonsertib (GS-4997)],inactive: 1.1
6,COc1ccc2c(c1)[C@]1(C[C@H]1c1ccc3c(/C=C/c4ccc(CN5C[C@@H](C)O[C@@H](C)C5)cc4)n[nH]c3c1)C(=O)N2,inactive: 1.07
7,CC(C)(C(=O)NCC(F)(F)C(F)(F)F)C(=O)N[C@@H]1C(=O)Nc2ccccc2-c2ccccc21,inactive: 0.931
8,CC(C)[C@H]1C(=O)N[C@@H](CCCNC(=N)N)C(=O)NCC(=O)N[C@@H](CC(=O)O)C(=O)N[C@H](Cc2ccccc2)C(=O)N1C [Cilengitide trifluoroacetate],active: 0.6
9,Nc1ncn([C@@H]2O[C@H](CO)[C@@H](O)[C@H]2O)c(=O)n1 [Azacitidine],inactive: 0.87
10,CNC(=O)c1ccccc1Sc1ccc2c(/C=C/c3ccccn3)n[nH]c2c1 [Axitinib],inactive: 1.02
11,COc1ccc(Oc2cc(NCCC(F)(F)F)c3ncc(-c4ccc(C(=O)NC5CC5)c(C)c4)n3n2)c(F)c1F,inactive: 0.852
12,COc1cccc(OCCCN)c1-c1cc(Nc2cnc(C#N)cn2)n[nH]1,inactive: 1.16
13,O=C(Nc1cc(C(F)(F)F)ccc1N1CCCCC1)c1ccncc1,inactive: 1.22
14,CS(=O)(=O)c1ccc(Oc2cc(F)cc(C#N)c2)c2c1[C@H](O)C(F)(F)C2,active: 0.54
15,CN(C)C/C=C/C(=O)Nc1ccc(C(=O)Nc2cccc(Nc3ncc(Cl)c(-c4c[nH]c5ccccc45)n3)c2)cc1,inactive: 1.79
16,O=C(c1cc(Cc2n[nH]c(=O)c3ccccc23)ccc1F)N1CCN(C(=O)C2CC2)CC1 [Olaparib],inactive: 1.25
17,CCOc1cc2ncc(C#N)c(Nc3ccc(OCc4ccccn4)c(Cl)c3)c2cc1NC(=O)/C=C/CN(C)C [Neratinib (HKI-272)],inactive: 1.1
18,Nc1ncn([C@H]2C[C@H](O)[C@@H](CO)O2)c(=O)n1 [Decitabine],active: 0.685
19,CC(C)(C)c1nc(-c2ccc(NC(=O)Nc3cccc(C(F)(F)F)c3)c3ccccc23)c2c(N)nccn12 [kira6],inactive: 2.31
20,c1ccc2c(-c3cnn4cc(-c5ccc(N6CCNCC6)cc5)cnc34)ccnc2c1,inactive: 0.785

row,SMILES,cell-surface PD-L1 MFI ratio
1,COc1cc2nc(N3CCCC3)nc(NCCCCCN3CCCC3)c2cc1OC,inactive: 1
2,CCC(=O)Nc1cccc(Oc2nc(Nc3ccc(N4CCN(C)CC4)cc3OC)ncc2Cl)c1,inactive: 0.946
3,C[C@@H]1CCN(C(=O)CC#N)C[C@@H]1N(C)c1ncnc2[nH]ccc12,active: 0.748
4,CC(C)Oc1ccc(-c2c[nH]cc2CN(C)CCN)cc1,inactive: 0.864
5,Cc1c(F)cc(C(=O)NC2CC2)cc1-c1ccc(C(=O)NCC(C)(C)C)cn1,active: 0.699
6,CCCCCCCCCCCCCCCCn1cc[n+](Cc2ccccc2)c1C,inactive: 2.66
7,CC(=O)c1c(C)c2cnc(Nc3ccc(N4CCNCC4)cn3)nc2n(C2CCCC2)c1=O,inactive: 0.848
8,CCCCCCCCCCCCCC(=S)NCCCC[C@H](NC(=O)OCc1ccccc1)C(=O)Nc1ccccc1 [Thiomyristoyl],active: 0.749
9,N#CC1(c2ccc(NC(=O)c3cccnc3NCc3ccncc3)cc2)CCCC1 [Apatinib],inactive: 1.35
10,O=C(O)c1ccc2c3c1cccc3c(=O)n1c3ccccc3nc21,inactive: 1.09
11,COc1cc2c(Oc3ccc4[nH]c(C)cc4c3F)ccnc2cc1OCC1(N)CC1 [Anlotinib],inactive: 1.25
12,CCc1ccc(/C=C2/SC(=S)NC2=O)cc1,active: 0.66
13,O=C(/C=C/c1ccc2ccc(C(F)(F)F)cc2n1)c1ccncc1,inactive: 0.828
14,COc1ccc(CCc2nc3cc(-c4c(C)noc4C)ccc3n2C[C@H](C)N2CCOCC2)cc1Cl,inactive: 0.751
15,C[C@@H]1COCCN1c1cc(C2([S@](C)(=N)=O)CC2)nc(-c2cc[nH]c3nccc2-3)n1,active: 0.74
16,COc1cc2nccc(Oc3ccc(NC(=O)C4(C(=O)Nc5ccc(F)cc5)CC4)cc3)c2cc1OC [Cabozantinib],inactive: 1.3
17,CC[C@@H]1C(=O)N(C)c2cnc(Nc3ccc(C(=O)N[C@H]4CC[C@H](N5CCN(CC6CC6)CC5)CC4)cc3OC)nc2N1C(C)C [Volasertib (BI 6727)],inactive: 1.24
18,C[C@@H](Oc1cc(-c2cnn(C3CCNCC3)c2)cnc1N)c1c(Cl)ccc(F)c1Cl,inactive: 0.831
19,CNc1nc(-c2ccc3c(N)n[nH]c3c2)cc(N2C[C@@H](C(=O)NC3CCCCC3)CC[C@H]2C)n1,inactive: 0.836
20,CN1CCN(CCOc2cc(OC3CCOCC3)c3c(Nc4c(Cl)ccc5c4OCO5)ncnc3c2)CC1 [Saracatinib (AZD0530)],inactive: 0.793
